In brackets after ≈: the same amount, converted by molar mass. Where two headings read alike, the source gives them in different places.
How the values were obtained:
[1] = Cytotoxicity, CellTiter 96 assay; format: cell-based, human; conditions: human, HepG2 cells, HepG2, 24 h incubation
Procedure: The cytotoxicity of the investigated compounds 1 and 2 was measured using the standard hepatic cell line HepG2 (Table 5). The used CellTiter 96 assay is based on the reduction of tetrazolium dye in living cells to formazan. This reduction is related to availability of NADH or NADPH. The parameter IC50, i.e., the concentration that reduces the viability of the cells to 50% of the maximal viability, was used as a measure of cytotoxicity. It was not possible to determine the exact IC50 values of two derivatives (compounds 2a, 2b) due to their limited solubility in the cell culture medium used in this experiment.
All of the compounds were tested to determine their cytotoxicity in the human hepatocellular liver carcinoma cell line HepG2 (passages 5–6 and 3–8; ECACC, Salisbury, UK) using a standard colorimetric method that involves measuring the reduction of a tetrazolium salt (CellTiter(R) 96 AQueous One Solution Cell Proliferation Assay; Promega, Fichtburg, MA, USA).
The cells were cultured in Minimum Essentials Eagle Medium (Sigma-Aldrich) supplemented with 10% foetal bovine serum (PAA), 1% L-glutamine solution (Sigma-Aldrich) and a non-essential amino acid solution (Sigma-Aldrich) in a humidified atmosphere containing 5% CO2 at 37 °C. The investigated compounds were dissolved in DMSO and a small volume was added to the cell culture. The tested compounds were prepared in triplicates at concentrations ranging from 1 to 1500 µM. Simultaneously, the following types of controls were also included in triplicates: determination of 100% viability and 0% viability (the cells were treated with 10% DMSO), no cell control and vehiculum controls. […] After 2 h incubation at 37 °C, absorbance of samples was recorded at 490 nm (Infinita M200, TECAN, Grödig, Austria). A standard toxicological parameter IC50 was calculated by nonlinear regression from a semilogarithmic plot of incubation concentration versus percentage of absorbance relative to untreated controls using GraphPad Prism 6 software (GraphPad Software Inc., San Diego, CA, USA). IC50 is the inhibitory concentration that reduces the cell viability to 50% of the maximal (control) viability.

[2] = system: Aspergillus fumigatus 231; assay: Antifungal microdilution broth MIC, A. fumigatus; format: cell-based; conditions: 24 h incubation, read-out: MIC AF 24 h
Candida glabrata 20/I = assay: Antifungal microdilution broth MIC, C. glabrata; format: cell-based; conditions: Nakaseomyces glabratus, 24 h incubation, read-out: MIC CG 24 h
[3] = system: Escherichia coli CCM 4517; assay: Antibacterial microdilution broth MIC, E. coli; format: cell-based; conditions: Escherichia coli, CCM4517; 24 h incubation; read-out: MIC EC 24 h
[4] = system: Lichtheimia corymbifera 272; assay: Antifungal microdilution broth MIC, L. corymbifera; format: cell-based; conditions: 24 h incubation, read-out: MIC LC 24 h
[5] = system: Staphylococcus epidermidis H 6966/08; assay: Antibacterial microdilution broth MIC, S. epidermidis; format: cell-based; conditions: Staphylococcus epidermidis, H6966/08; 24 h incubation; read-out: MIC SE 24 h
[6] = system: Enterococcus faecalis J 14365/08; assay: Antibacterial microdilution broth MIC, E. faecalis; format: cell-based; conditions: Enterococcus faecalis, J14365/08; 24 h incubation; read-out: MIC EF 24 h
[7] = system: Pseudomonas aeruginosa CCM 1961; assay: Antibacterial microdilution broth MIC, P. aeruginosa; format: cell-based; conditions: Pseudomonas aeruginosa, CCM1961; 24 h incubation; read-out: MIC PA 24 h
[8] = system: methicillin-resistant Staphylococcus aureus H 5996/08 (MRSA); assay: Antibacterial microdilution broth MIC, MRSA; conditions: MRSA; for MIC: Staphylococcus aureus; for SI for Staphylococci (MRSA): SI = IC50 (HepG2)/MIC
[9] = system: Staphylococcus aureus CCM 4516/08; assay: Antibacterial microdilution broth MIC, S. aureus; format: cell-based; conditions: CCM4516, 24 h incubation, read-out: MIC SA 24 h
Candida tropicalis 156 = assay: Antifungal microdilution broth MIC, C. tropicalis; format: cell-based; conditions: 24 h incubation, read-out: MIC CT 24 h
[10] = system: Candida albicans ATCC 44859; assay: Antifungal microdilution broth MIC, C. albicans; format: cell-based; conditions: ATCC44859, 24 h incubation, read-out: MIC CA 24 h
Candida krusei E28 = assay: Antifungal microdilution broth MIC, C. krusei; format: cell-based; conditions: Pichia kudriavzevii, 24 h incubation, read-out: MIC CK 24 h
Trichosporon asahii 1188 = assay: Antifungal microdilution broth MIC, T. asahii; format: cell-based; conditions: 24 h incubation, read-out: MIC TA 24 h

SMILES | IC50 at 24 h [1] | MIC [2] | MIC (Candida glabrata 20/I) | MIC [3] | MIC [4] | MIC [5] | MIC [6] | MIC [7] | MIC ([8]; 24 h, read-out: MIC MRSA 24 h) | MIC ([8]; 48 h, read-out: MIC MRSA 48 h) | MIC [9] | MIC (Candida tropicalis 156) | MIC [10] | MIC (Candida krusei E28) | MIC (Trichosporon asahii 1188) | SI for Staphylococci (MRSA) [8]
O=S(=O)(Nc1ncccn1)c1ccc(N=Cc2cc(Cl)cc(Cl)c2O)cc1 [Compound 2m, 4-[(3,5-Dichloro-2-hydroxybenzylidene)amino]-N-(pyrimidin-2-yl)benzenesulfonamide] | 114 µM | 250 µM (≈ 106 µg/mL) | 31.2 µM (≈ 13.2 µg/mL) | > 500 µM | 500 µM (≈ 212 µg/mL) | 31.2 µM (≈ 13.2 µg/mL) | > 500 µM | > 500 µM | 62.5 µM (≈ 26.5 µg/mL) | 62.5 µM (≈ 26.5 µg/mL) | – | – | – | – | – | –
Cc1ccc(O)c(C=Nc2ccc(S(=O)(=O)Nc3ncccn3)cc2)c1 [Compound 2g, 4-[(2-Hydroxy-5-methylbenzylidene)amino]-N-(pyrimidin-2-yl)benzenesulfonamide] | ~570 µM | > 500 µM | > 500 µM | > 250 µM | > 500 µM | – | > 250 µM | > 250 µM | 125 µM (≈ 46.1 µg/mL) | 125 µM (≈ 46.1 µg/mL) | > 250 µM | > 500 µM | > 500 µM | > 500 µM | > 500 µM | –
O=[N+]([O-])c1ccc(O)c(C=Nc2ccc(S(=O)(=O)Nc3ncccn3)cc2)c1 [Compound 2f, 4-[(2-Hydroxy-5-nitrobenzylidene)amino]-N-(pyrimidin-2-yl)benzenesulfonamide] | 140 µM | > 500 µM | 250 µM (≈ 99.8 µg/mL) | 250 µM (≈ 99.8 µg/mL) | 500 µM (≈ 200 µg/mL) | 500 µM (≈ 200 µg/mL) | 500 µM (≈ 200 µg/mL) | 500 µM (≈ 200 µg/mL) | – | 250 µM (≈ 99.8 µg/mL) | 250 µM (≈ 99.8 µg/mL) | > 500 µM | 500 µM (≈ 200 µg/mL) | > 500 µM | > 500 µM | –
O=S(=O)(Nc1ncccn1)c1ccc(N=Cc2cc(Br)ccc2O)cc1 [Compound 2d, 4-[(5-Bromo-2-hydroxybenzylidene)amino]-N-(pyrimidin-2-yl)benzenesulfonamide] | 159 µM | 250 µM (≈ 108 µg/mL) | – | 500 µM (≈ 217 µg/mL) | > 500 µM | 250 µM (≈ 108 µg/mL) | > 500 µM | 500 µM (≈ 217 µg/mL) | – | 500 µM (≈ 217 µg/mL) | 500 µM (≈ 217 µg/mL) | 250 µM (≈ 108 µg/mL) | – | 250 µM (≈ 108 µg/mL) | – | –
Nc1ccc(S(=O)(=O)Nc2ncccn2)cc1 [SDZ 1, sulfadiazine, reference compound] | – | – | – | > 500 µM | – | > 500 µM | > 500 µM | > 500 µM | 500 µM (≈ 125 µg/mL) | > 500 µM | 500 µM (≈ 125 µg/mL) | – | – | – | – | –
O=S(=O)(Nc1ncccn1)c1ccc(N=Cc2cc(I)ccc2O)cc1 [Compound 2e, 4-[(2-Hydroxy-5-iodobenzylidene)amino]-N-(pyrimidin-2-yl)benzenesulfonamide] | 156 µM | 250 µM (≈ 120 µg/mL) | – | 250 µM (≈ 120 µg/mL) | > 500 µM | – | 250 µM (≈ 120 µg/mL) | 500 µM (≈ 240 µg/mL) | – | 250 µM (≈ 120 µg/mL) | 250 µM (≈ 120 µg/mL) | – | – | – | – | –
O=S(=O)(Nc1ncccn1)c1ccc(N=Cc2c(O)cccc2Cl)cc1 [Compound 2k, 4-[(2-Chloro-6-hydroxybenzylidene)amino]-N-(pyrimidin-2-yl)benzenesulfonamide] | 102 µM | > 250 µM | > 250 µM | > 250 µM | > 250 µM | > 250 µM | > 250 µM | > 250 µM | – | > 250 µM | > 250 µM | > 250 µM | > 250 µM | > 250 µM | > 250 µM | inactive
O=S(=O)(Nc1ncccn1)c1ccc(N=Cc2cc(O)ccc2O)cc1 [Compound 2i, 4-[(2,5-Dihydroxybenzylidene)amino]-N-(pyrimidin-2-yl)benzenesulfonamide] | > 500 µM | – | 15.6 µM (≈ 5.79 µg/mL) | 500 µM (≈ 185 µg/mL) | 500 µM (≈ 185 µg/mL) | 15.6 µM (≈ 5.79 µg/mL) | 250 µM (≈ 92.6 µg/mL) | 500 µM (≈ 185 µg/mL) | – | 31.2 µM (≈ 11.6 µg/mL) | 31.2 µM (≈ 11.6 µg/mL) | 15.6 µM (≈ 5.79 µg/mL) | 15.6 µM (≈ 5.79 µg/mL) | 31.2 µM (≈ 11.6 µg/mL) | 15.6 µM (≈ 5.79 µg/mL) | –
O=S(=O)(Nc1ncccn1)c1ccc(N=Cc2cc(Cl)cc(I)c2O)cc1 [Compound 2o, 4-[(5-Chloro-2-hydroxy-3-iodobenzylidene)amino]-N-(pyrimidin-2-yl)benzenesulfonamide] | 59.2 µM | – | 7.81 µM (≈ 4.02 µg/mL) | 250 µM (≈ 129 µg/mL) | 250 µM (≈ 129 µg/mL) | 31.2 µM (≈ 16.1 µg/mL) | 250 µM (≈ 129 µg/mL) | 500 µM (≈ 257 µg/mL) | – | 15.6 µM (≈ 8.04 µg/mL) | 15.6 µM (≈ 8.04 µg/mL) | 7.81 µM (≈ 4.02 µg/mL) | 7.81 µM (≈ 4.02 µg/mL) | 7.81 µM (≈ 4.02 µg/mL) | 7.81 µM (≈ 4.02 µg/mL) | –
OC(Cn1cncn1)(Cn1cncn1)c1ccc(F)cc1F [FLU, fluconazole, reference compound] | – | > 500 µM | 31.2 µM (≈ 9.57 µg/mL) | – | > 500 µM | – | – | – | – | – | – | > 500 µM | 0.24 µM (≈ 0.0735 µg/mL) | 125 µM (≈ 38.3 µg/mL) | 250 µM (≈ 76.6 µg/mL) | –
O=S(=O)(Nc1ncccn1)c1ccc(N=Cc2cc(F)ccc2O)cc1 [Compound 2b, 4-[(5-Fluoro-2-hydroxybenzylidene)amino]-N-(pyrimidin-2-yl)benzenesulfonamide] | > 250 µM | > 250 µM | > 250 µM | > 250 µM | > 250 µM | > 250 µM | > 250 µM | > 250 µM | – | > 250 µM | > 250 µM | > 250 µM | > 250 µM | > 250 µM | > 250 µM | inactive
O=S(=O)(Nc1ncccn1)c1ccc(N=Cc2cccc(Cl)c2O)cc1 [Compound 2l, 4-[(3-Chloro-2-hydroxybenzylidene)amino]-N-(pyrimidin-2-yl)benzenesulfonamide] | 160 µM | 250 µM (≈ 97.2 µg/mL) | – | > 500 µM | > 500 µM | > 500 µM | > 500 µM | > 500 µM | – | > 500 µM | > 500 µM | – | – | 250 µM (≈ 97.2 µg/mL) | – | inactive
COc1ccc(O)c(C=Nc2ccc(S(=O)(=O)Nc3ncccn3)cc2)c1 [Compound 2h, 4-[(2-Hydroxy-5-methoxybenzylidene)amino]-N-(pyrimidin-2-yl)benzenesulfonamide] | 351 µM | > 500 µM | 500 µM (≈ 192 µg/mL) | > 500 µM | > 500 µM | – | > 500 µM | 500 µM (≈ 192 µg/mL) | – | > 500 µM | 500 µM (≈ 192 µg/mL) | 500 µM (≈ 192 µg/mL) | 500 µM (≈ 192 µg/mL) | > 500 µM | 500 µM (≈ 192 µg/mL) | inactive
O=S(=O)(Nc1ncccn1)c1ccc(N=Cc2cc(Cl)cc(Br)c2O)cc1 [Compound 2n, 4-[(3-Bromo-5-chloro-2-hydroxybenzylidene)amino]-N-(pyrimidin-2-yl)benzenesulfonamide] | 92.9 µM | 250 µM (≈ 117 µg/mL) | 31.2 µM (≈ 14.6 µg/mL) | 500 µM (≈ 234 µg/mL) | 500 µM (≈ 234 µg/mL) | 31.2 µM (≈ 14.6 µg/mL) | > 500 µM | > 500 µM | – | 15.6 µM (≈ 7.31 µg/mL) | 31.2 µM (≈ 14.6 µg/mL) | – | 31.2 µM (≈ 14.6 µg/mL) | – | – | –

From article PMC6151383 (Molecules : A Journal of Synthetic Chemistry and Natural …, 2017)
